Data reported in the RNAGym collection of RNA variant scans (doi:10.7554/elife.90254).
Read counts are not given, so values of variants with three or more changes are uncertain.

B1: OR4K15 (parent)
chain: GUUAACGGUCAUAGGCCAUGGAAACUAGGAGCACCAUUUCGCUGCCAGUGAAGAAAUGAACAAAGAAAAUCUGGGCCAGGCAGGCAUCAAAAGAAAUAGUCUUGCGCUCAACCAGAAAGUCUGUAAUCAUUUUAAGGGUA

Variants of: B1
Test: self-cleavage, relative activity (ratio to wild type); higher = more cleavage; in vitro, sequencing; the parent is a self-cleaving ribozyme

Variant	self-cleavage
C32U A36G A111G	0.07
A30G A62G C76G A114U	0.03
A30G U39A U103C	1.3
A30G U37A U49C A90G U122C	1.09
A33G A116U U120C U131C U132C	0.05
G31A A66G A69G	2.04
A33C A64G U131C	1.56
A33G A55G U72G G84C A92G A95G U120G	0.09
C32A U38C A92G	1.85
A33G A51U A55G	0.26
A30U A59G U72C	0.42
A33G A64C A82U	0.12
A33C A69G C85U U130C	0.23
A30G A91G A95G A110G	0.25
A33G A91G A94G A117G	0.83
A30G U57C A86G A110G U127C	0.03
A33C U39C A55G	1.06
A30G U38C U43C A110G A111G	0.02
A30U A95G A140G	1.54
A33G U49C A89G U100C	2.24
A33G A36U U57C A69G U139A	0.81
A33C G48U A95G	2.05
G31U U72A A90U A96U U102C U139A	0.59
A30G A62G A66G A111U	0.07

Variant	self-cleavage
A30G C85U A140G	0.87
A30G A47G A69G	1.39
A33C C40U A116G	0.92
A30G A55G A96G	1.11
G31A A67G U87A A90G	2.67
A30U U43C A90G U132A	0.91
A33G A68G G83A A114U U122C	0.01
A33G U37A U100A	0.77
C32U A54U A60G A78G	0.21
A33G A56G A68G	0.68
C32U U49C C107U	0.03
A30G U70C A92U A116G	1.14
C32U U38C G48A	1.88
A30G A67G U122C A126G U131C	0.84
A33G A63G A129U	1.08
A30U C40U C46U A90G C121U	0.55
A33G G106U A125U	0.01
A33G U37C U49C U122C	0.33
A30G U43C A68G G83A U97C A117G A140U	1.02
A30U A62G U102C	1.44
A30G U43C A92G U100C U130C G136A	2.89
A30U A94G U132C	1.81
A30U U37C A56C A91G	1.18
A30U U39A A86G	0.91

Variant	self-cleavage
A33G A94G A111U	0.08
A30G A62U A140U	1.11
A30G A47U A51U U87C A94G U97C	0.74
A30G U38C U127C	1.01
A33G A47U G138A	0.55
A30U A47G A110G A116G A126G	0.02
C32U A86U G137A	1.39
A33G G44A A82U A116G	0.03
A30G A68G U100C A114G	0.32
A30G A51U U108C A117G	0.01
C32U U87C U100C	2.06
A30G U37C A47G U49A U127C	0.67
A33C A54G A82U	0.38
A30G A68U A78U A111G U130C	0.01
G31U A68U A92U U130C	1.06
A30G U102C U139A	1.24
A30G A51G A56G A59G A66G A67G A86G U108C	0.09
A33G C40A G44A U100C	1.55
A30U A36G A90G U127C	0.42
A30G U132A A135G	0.05
A33G A47G A52G A94G U100C U127C	1.06
A30G A52G A66G	0.52
C32U U39C A90G U102G	1.2
A30G A51G A62G	1.99

Variant	self-cleavage
A33G U37C A92G A96U	0.4
A30U A59G A82G	0.36
A30G U37C A51G A92G	2.19
A33G A63U A90G A118U U120A	0.2
A30G A96G A118U	0.8
A30G G74U A114U A117G A126G	0.01
A30G A56G A98G U127G	0.6
A30G U38C A52G A54G A68G G83A A116G	0.97
G31A A92G A129G	0.86
A30U A55G G136A	1.1
A30G A64G U103C A125G U131G	0.11
G31U U39A A86G U103C U132C	1.1
C32U A98G U108A A135U	0.01
A30U U43C A67U A68G	1.58
A30G A78G A92G C105U	0.08
A30G A56G U100C C112U A114G	0
A33G U38C A67U G115A U131C	0.04
A33G U39A A82U	0.04
A30G A60G A67G	1.32
A33C G106U G137A	0.01
A30G A54G A89G C105U	0.37
A33G A63G A118U A140U	0.25
A33G A91G U120C U131A A140G	0.31
A33G A64G U130C	0.48

Variant	self-cleavage
A30G A36G C112U	0.04
A30G C40U A111G	0
A33C U37C A56G	0.71
A33G A52G A56G A64G A67U A86G A89C U122C	0
A33G A55G A60G	0.23
A30G C71U U132C	0.35
A33G A59G A60G U87C G93U	0.82
A30U A51G A117G	1.04
A33G U49G G80A A89G U131C	0.22
A33C A89G A117G U124C	1.18
A30G A62U A82U	0.27
A33G A69G U87C A140G	1.2
G31C A33G A59G A92G U97C	0.73
G31C A89U U102C	2.72
G31U A62G A78U	0.5
A30G A92G U102A A110C U130G	0.05
A30G C35U A51G U57C A89G U103C	0.17
A30G A114G A117U U124C	0.19
A30G A56G A86U U122C G137C	1.99
A30G A51G A56G A69G A89U A140G	0
A30G A98G U139C	0.56
A33G A66G A94G U127A A140G	1.81
A30G A54G A86G A90G	1.03
A33G A90G A94U U122C	0.17

Variant	self-cleavage
A30G A56G A111G	0.06
A30G U38C U103C A118G	0.48
A33G C45G A116G	0.63
C32U A78G U87A	0.15
A30G U49C A129G U139C	0.93
A33G A51G U122C	0.18
A30U U39C U70C	0.73
A30G A66G A89U A94G A118G	1.29
A33G A56G A90G	0.43
A30G U37C A47U A78G G79U	0.11
A33G U43G U127A	1.15
C32A U70C A91G A116G	0.95
A33G A82G A89G	0
A30G U39A U130C	1.14
A33G A51G A52U A86G	0.29
A30G A91C A92G A114G G119U	0.73
A30G A51G A116G	0.72
A30G A68G A118G A140C	0.87
A30G A94U A118G U130C	0.51
A30G C40A A51G A110G	0.17
A33G A36G G58U A111U	0.05
A30G U87C A111G G137A	0.01
A33G G65U G115A	0.05
A30U A47G A111G	0.07

Variant	self-cleavage
A33G U72A A110G U127A	0.04
A30U A47G A54G U120A U122C U124C	1.81
A30U A68G U122C	1.3
A30G A90G U130C U131C	0.93
A30G U38C U43A U49A U102A U127G	1.26
A33G U57G U120G	0.58
A33G A56G A96G	1.35
A30G A62G U72A A116G	0.05
A33G A67G A134U	0.94
A33G A51G A96G U102C	1.68
A33C U38C A60G A114G	0.45
A30G U103C A129U A140U	0.6
A30U U70C U87A	0.99
A30G A68G U87C A117U	0.66
A33G A55G A98U U108C	0.03
A30U U49C A54G	1.42
A33G C105A U127C U131C U139C	0
A30G A51G G75A A94U	0.2
A33G A47G A92G	0.25
A30G A59G A60G A82C A94G	0.1
A30U U39A A64G A69G A90G	1.37
A30G A55G A91G	0.39
G31U U37A A66G	0.8
